Laboratory results as given in the antibiotic and cytotoxicity screens of Wong et al. (2023).
The other results are listed elsewhere or left out.

The compounds below were run on S. aureus RN4220 (assay: growth inhibition call (relative growth <= 0.2)). Details: 50 µM.

Growth inhibition call, inactive:
CC(=O)OC12COC1CC(O)C1(C)C(=O)C(O)C3=C(C)C(OC(=O)C(O)C(NC(=O)OC(C)(C)C)c4ccccc4)CC(O)(C(OC(=O)c4ccccc4)C21)C3(C)C.O.O.O (configuration not stated)
COc1oc(C(=O)NC2CCCCC2)c(-c2ccc(Cl)cc2)c1S(=O)(=O)c1ccc(Cl)cc1
Cc1cc(OCc2nnc(SC3CCCC3)n2-c2cccnc2)ccc1-c1ccc(S(C)(=O)=O)cc1
COc1ccc(NC(=O)Nc2ccc3c(c2)C(=O)N([C@H](C)CO)C[C@H](C)[C@@H](CN(C)C(=O)NC(C)C)OCCCC[C@@H](C)O3)cc1
Cc1noc(C)c1NC(=O)Nc1ccc2c(c1)C(=O)N([C@H](C)CO)C[C@H](C)[C@H](CN(C)Cc1ccc3c(c1)OCO3)OCCCC[C@H](C)O2
COc1ccc(S(=O)(=O)N(C)C[C@@H]2Oc3cc(C#CC4CCCC4)ccc3S(=O)(=O)N([C@@H](C)CO)C[C@@H]2C)cc1
Cc1cc(C(=O)Nc2cccc3c2O[C@@H](CN(C)S(=O)(=O)c2ccccc2)[C@@H](C)CN([C@@H](C)CO)C3=O)n(C)n1
CC(=O)n1cc([C@H]2C=C(C(=O)NCc3ccccc3)O[C@@H](OCc3ccc(CO)cc3)C2)c2ccccc21
C[C@@H]1CCCCO[C@H](CN(C)Cc2ccc3c(c2)OCO3)[C@@H](C)CN([C@@H](C)CO)C(=O)c2cc(NS(=O)(=O)c3ccc(F)cc3)ccc2O1
C/C=C1\[C@H](O[C@@H]2O[C@H](CO)[C@@H](O)[C@H](O)[C@H]2O)OC=C(C(=O)OC)[C@H]1CC(=O)OC
C[C@H]1CN([C@@H](C)CO)S(=O)(=O)c2ccc(C#CC3(O)CCCC3)cc2O[C@@H]1CN(C)C(=O)Nc1cccc(F)c1
Cc1noc(C)c1NC(=O)N(C)C[C@H]1OCCCC[C@H](C)Oc2ccc(NC(=O)Cc3ccccc3)cc2C(=O)N([C@@H](C)CO)C[C@H]1C
C[C@@H]1CN([C@@H](C)CO)C(=O)Cc2cc(NS(=O)(=O)c3cccs3)ccc2O[C@@H]1CN(C)S(=O)(=O)c1ccc(F)cc1
C[C@@H]1CCCCO[C@H](CN(C)C(=O)C2CCCCC2)[C@@H](C)CN([C@@H](C)CO)C(=O)c2cc(NS(=O)(=O)c3ccccc3)ccc2O1
CCC1(C)OC(=O)N(C)C1=O (configuration not stated)
C[C@H](CO)N1C[C@H](C)[C@H](CN(C)C(=O)CN(C)C)Oc2ncc(-c3ccc(C(=O)N(C)C)cc3)cc2C1=O
C[C@@H]1CN([C@@H](C)CO)C(=O)c2cc(NC(=O)Cn3cnnn3)ccc2O[C@H]1CN(C)Cc1ccc(Oc2ccccc2)cc1
C[C@@H]1CN([C@@H](C)CO)S(=O)(=O)c2ccc(C#CCN(C)C)cc2O[C@@H]1CN(C)S(=O)(=O)c1cccc(F)c1
NC(=O)NCC#Cc1ccc2c(c1)[C@]1(C(=O)N2)[C@H](C(=O)Nc2nc3ccccc3s2)[C@H]2C(=O)O[C@H](c3ccccc3)[C@H](c3ccccc3)N2[C@@H]1c1ccccc1OCCO
COc1ccc(S(=O)(=O)Nc2ccc3c(c2)CC(=O)N([C@@H](C)CO)C[C@@H](C)[C@H](CN(C)CC2CC2)O3)cc1
C[C@@H]1CCCCO[C@H](CN(C)Cc2ccc(C(F)(F)F)cc2)[C@H](C)CN([C@@H](C)CO)C(=O)c2cc(NC(=O)Nc3ccccc3)ccc2O1
C[C@H](CO)N1C[C@H](C)[C@@H](CN(C)S(C)(=O)=O)OCc2cnnn2CCCC1=O
